Experimental data as given in the supplement of paper PMC10126150.
Values marked as one replicate rest on one cluster of the flow cell; about a third of the high ones do not repeat.

Tested on: ATP
Assay: switch fluorescence ratio, 500 uM ATP over buffer (Cy3 cluster intensity, sum of 5 cycles each) (fold (ratio)); higher = stronger signal-on switching upon ATP binding; sequences stand for … in TCGTCGGCAGCGTCAGATGTGTATAAGAGACAGTTTTTTTTTTTTTTTTTTTTTTTTT…TC
Conditions: aptamer strand: ATP DNA aptamer (quencher-CACCTGGGGGAGTATTGCGGAGGAAGG + anchor), 100 nM annealed; ATP concentration: 500 uM; one replicate
How it was run: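 Clusters carrying Cy3-labelled switching strands on a modified Illumina MiSeq flow-cell were annealed to 100 nM quencher-labelled ATP aptamer and imaged in selection buffer. They were imaged again after 15 min with 500 uM ATP at 22 °C, over five buffer/ATP cycles with NaOH stripping and re-annealing in between. For each cluster, the fluorescence ratio is the summed Cy3 intensity of the target cycles divided by that of the buffer cycles, averaged per switch-domain sequence. Clusters outside 100-1000 RFU were left out.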
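Note: ATP exposure 15 min at 22 °C before imaging.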

Row | Sequence | switch fluorescence ratio
1 | AAGTTTAAAG | 0.977
2 | AGGCCGTGCT | 1
3 | CAGCCCTGGT | 1.08
4 | ACTCGTATAG | 0.966
5 | AGGGTCATG | 0.998
6 | CCCCTGATTG | 1.08
7 | CTGGCTTCTG | 1.06
8 | ATGACGGGAC | 1.22
9 | AATCTAGGGG | 0.999
10 | CTAATAGTTC | 0.949
11 | AGAGTCAGAT | 0.997
12 | CGAATGGTGC | 1.04
13 | TGGGGAGGAC | 1.11
14 | TTGAGTCAGC | 1.03
15 | ATTCTTTAGG | 1.02
16 | TCTGGGATAC | 4.1
17 | TTAAGATATA | 0.924
18 | AAGCGTTGGA | 0.982
19 | TCGGGTCTC | 0.987
20 | ACATGCGCCG | 1.04
21 | GCAGTAGGTC | 1.01
22 | TGCTCACTGG | 1.01
23 | GGAAAATTGG | 0.924
24 | ACCAAGGTG | 4.47
25 | AAACTATTTA | 1.06

Row | Sequence | switch fluorescence ratio
26 | CTGTCCGGAT | 0.969
27 | GCAACCACTT | 1.09
28 | ATGGATAACG | 0.959
29 | CGAGTACTGC | 1.02
30 | AGCACTTCCA | 1.03
31 | AAATTCTCGT | 1.03
32 | TGTAGGTAGT | 1.01
33 | TAGTTAGAGA | 1
34 | ACCAGCAGGC | 1.33
35 | CATTGAAATG | 1.04
36 | AATGCATCTT | 1.01
37 | AGGGATGTTC | 0.961
38 | TCACGAGCTC | 1.02
39 | AGCGCGCTA | 1.03
40 | ATACGCGTGT | 1.03
41 | ATCCTCGCCT | 3.79
42 | AAGCGGCGGA | 1
43 | CACCGACAGC | 1.66
44 | GGATTAATAG | 0.962
45 | TTTATCTGAG | 1.09
46 | GGGTCAAAAT | 1
47 | GGTGTGCGGT | 0.954
48 | GAAAGCTGTA | 0.983
49 | ATGTTGTTAG | 1.02
50 | CCAAGTATAT | 1.02

Row | Sequence | switch fluorescence ratio
51 | CCAACCCTAC | 2.12
52 | ACAACGAAG | 1.02
53 | GGACTCCTTA | 0.984
54 | GGGAACGGAC | 1.13
55 | CTCCACTATA | 3.77
56 | AGGGTGCCGG | 0.932
57 | CGCTAGGGGT | 1.08
58 | TTCCCTTAAC | 1.03
59 | TGATGATCTA | 0.995
60 | AGGAAGGTCT | 0.973
61 | GGTATTACTA | 0.986
62 | TTTTCGTAAG | 0.998
63 | GGGTTTGA | 1.03
64 | CCCGGTACGA | 1.23
65 | AGGTCCGCAT | 3.4
66 | CTGGTCTACT | 1
67 | AGAAGTATCC | 1.11
68 | GGTGCAGTTG | 0.964
69 | ATACGTTAAT | 1.22
70 | AGCCCGGATT | 0.996
71 | TAGAAAACTC | 0.982
72 | GAAGAAGCGG | 0.999
73 | TTGTTGTGCG | 0.981
74 | TCCCAAACCC | 2.01
75 | CTTGGTAGAT | 1.01

Row | Sequence | switch fluorescence ratio
76 | CCGACAGTCT | 1.11
77 | TCCTGGTCGG | 1.01
78 | TATACCTGTT | 1.02
79 | GAAGTTTGTC | 1.03
80 | TATTATTAAT | 0.992
81 | ACCCTAAATG | 0.979
82 | CAATATCTAT | 1
83 | CTCGGTGCAA | 1.51
84 | TAGTCTTATA | 1
85 | GGACTGGGCA | 1.01
86 | ACCAGGCGCA | 1.12
87 | AAAAGGTCGG | 0.942
88 | GTTAGGAAAG | 1
89 | AATGAGGATT | 1
90 | ATAAACGAA | 0.963
91 | TCAGGCATAT | 1.01
92 | GAAAACAATT | 1.04
93 | AACAGTTTAT | 1.03
94 | ACGGGTCTGT | 0.997
95 | AGAACATTT | 1.02
96 | TACTTCGGCT | 1
97 | ATAATGATTA | 1
98 | TAGCACGTCA | 1.06
99 | GGATAAGTCC | 0.989
100 | TAATAGTA | 1

Row | Sequence | switch fluorescence ratio
101 | GGGAACGTGG | 1.26
102 | GCGGACTAG | 1.03
103 | TAACAGTGCG | 0.963
104 | GGAACCTTCG | 3.08
105 | AAGTTAAGAG | 1.02
106 | TATGTAGGTC | 1.04
107 | TCGACGTC | 1.05
108 | GGAATATCGA | 0.985
109 | CAAAGTATTG | 0.982
110 | AGATCCCTCA | 0.998
111 | TTGTACGACG | 1.07
112 | GTCCGACAGC | 1.57
113 | AAATGGGAAT | 1.01
114 | GACATCGTAA | 1.09
115 | AGGAATTGCG | 0.978
116 | TCGACAAGCC | 1.33
117 | CCAGCTTCGA | 1.06
118 | AAGATCGGCC | 0.986
119 | TTAGAGTCGA | 0.971
120 | ATTGAAATGC | 1.1
121 | TTTAGAGCTA | 1.07
122 | AGTTGTCGGC | 0.975
123 | CATTGTTTAT | 0.963
124 | GTGGGGCGGC | 0.995
125 | GTTAAACTAT | 1.01

Row | Sequence | switch fluorescence ratio
126 | ACGGCTGCTA | 1.08
127 | TTGATGTCTA | 1.01
128 | ACTCCCTTTT | 1.23
129 | ATCAACCAGG | 3.39
130 | CCGGGCTAT | 1.94
131 | CCCCCGTCGA | 3.42
132 | TTAACTATGT | 0.99
133 | TGCCATTGGA | 1.05
134 | AGCGCCGAGC | 0.997
135 | TAGCTTTAGC | 0.958
136 | GTCTCAAGCG | 0.952
137 | TGAGTCGTGG | 1.01
138 | ACTGTATGA | 1.16
139 | TCTCTAAGAG | 1.15
140 | GCTTCGCCTC | 1.55
141 | GGTGGCTGGC | 0.916
142 | TGATAGCTGG | 0.96
143 | CGGTTGTCCC | 0.96
144 | CCGGACCCCG | 1.06
145 | TTCTATGCTT | 1.03
146 | GCCCCAAGCG | 1.05
147 | GGTGGTATTG | 0.991
148 | GACCATATCG | 1.02
149 | CGGGTGCCGG | 0.984
150 | TAATATAATC | 1.02

Row | Sequence | switch fluorescence ratio
151 | CGACCGAAGA | 1.04
152 | TTAACTGAAT | 1
153 | CTGAAGGCTT | 0.966
154 | AATTTTTTGC | 1.03
155 | GGGAACTAAC | 1.04
156 | CGGAGGTGAG | 1.03
157 | ACGAATGGAA | 1.06
158 | TAAGACTAAA | 0.985
159 | GTGGCAAAGG | 1
160 | CATTTTAGAT | 1
161 | AGCTGCAGAG | 1.01
162 | GAAGCTGCTA | 1.03
163 | CTGAATTACT | 1.08
164 | AGGAACCGTA | 1.15
165 | TAAATCGACG | 1.04
166 | AGAGGCAGAT | 0.974
167 | TCTCGTCGAA | 0.979
168 | TCTAAGTGGC | 1.03
169 | GAAGAAAGAA | 0.999
170 | TTGGACTATG | 0.994
171 | TGCTGTATCA | 1.02
172 | TTGAGAAATG | 1
173 | GCACTAGGTC | 1.02
174 | TTACCCAAGC | 1.01
175 | TCTCGACCT | 1.04

Row | Sequence | switch fluorescence ratio
176 | ATACGCCCTC | 1.31
177 | GCGTACAATA | 1.06
178 | TCCTTCGGC | 1.85
179 | CCAATAATAG | 1.53
180 | CGCAGTGGAA | 1.03
181 | TGATGAAGTG | 1.02
182 | AATGTCACTC | 1.07
183 | TGCAGCGATC | 5.02
184 | GATTGATTAC | 1.05
185 | GTGAGGAGAT | 0.99
186 | GGTAATCGGC | 0.996
187 | AGGATGTTGA | 1
188 | ATATGATACC | 1.01
189 | TGCTATATAT | 0.992
190 | GCTGTATAGC | 1.04
191 | AGTCAGGTGG | 1.07
192 | TGAATGTAGA | 1.03
193 | CTACCATTTA | 1.01
194 | TGATACCGGG | 1.01
195 | CGGCGCGAAC | 4.61
196 | CTGCCCAGTG | 3.61
197 | ACCCAATGTT | 1.03
198 | TTTACGCATT | 1.04
199 | ACCGTGTCTC | 1.06
200 | GCATCTAGGA | 0.965
